± gives the standard deviation. Whole data set: some 5,500 sequences, median “pre-steady-state target cleavage rate” near 0.1, cut for the highest 2% near 0.64. The entries are a selection whose mix differs from that of the whole data set.
System: MIWI (PIWIL1) piRISC loaded with piRNA #2 (30 nt)
Assay: pre-steady-state target cleavage rate (min^-1); MIWI and MILI are mouse PIWI proteins and EfPiwi is from a freshwater sponge; tags in brackets are library labels; higher = faster piRNA-guided slicing of the target
Conditions: guide: piRNA #2 5'p-UUAGGUAACCCAGUAGAUCCAGAGGAAUUC; auxiliary factor: 500 nM mouse GTSF1
Description: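 Cleave-'n-Seq: a library of target RNAs (target site embedded in constant flanks, ACAGCATTCCGCGTTAGTGATATCCG... 5' flank; DNA-blocked outside the site) at 0.1 nM was incubated with 1 nM active mouse MILI or MIWI piRISC (synthetic 5'-monophosphorylated piRNA guide) with or without 500 nM mouse GTSF1 at 33 °C for 1 min to 16 h. Uncleaved targets were sequenced and normalised to non-target controls, and the pooled three trials were fitted to a burst-and-steady-state model to give the pre-steady-state cleavage rate (min^-1; k3 is constrained to at most 1e-4). Sequence is the target site only; target names encode pairing extent (gX:gY) and contiguous / 1-mismatch / 2-mismatch / bulge geometry. Fits with R² ≤ 0 are excluded.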

Question: Which “pre-steady-state target cleavage rate” value does the source give for CUUUUCCUCUGGAUCUUCAGGGUUACCUAA here?
Answer: 0.134 ± 0.014

Question: Which “pre-steady-state target cleavage rate” value does the source give for CAAUUCCUCUGCAUCUACUGCGUUACCUAA here?
Answer: 0.666 ± 0.058

Question: With CUUAUCCUCUGGAUCAACUGGGUUUCCUAA as the sequence, how does the “pre-steady-state target cleavage rate” value read?
Answer: 0.162 ± 0.042

Question: CUUAAGGAGAGGAUCUACUGGGUCACCUAA was tested. Which “pre-steady-state target cleavage rate” value did it give?
Answer: 0.0212 ± 0.0054

Question: CAAUUCCUCUGGAUCUACUGGGUUACGUUA was tested. Which “pre-steady-state target cleavage rate” value did it give?
Answer: 0.44 ± 0.076

Question: With CUUAAGCGCUGGAUCUACUGGGUUACCUAA as the sequence, how does the “pre-steady-state target cleavage rate” value read?
Answer: 0.162 ± 0.014

Question: With CUUAACACUCUGGAUCUACUGGGUUACCUAA as the sequence, how does the “pre-steady-state target cleavage rate” value read?
Answer: 0.155 ± 0.022

Question: For GAUAACCUCUGGAUCUACUGGGUUACCUAA, which “pre-steady-state target cleavage rate” value is on record?
Answer: 0.123 ± 0.024

Question: With GAAUUCCUCUGGAUCUACUGGGUUACCUGAA as the sequence, how does the “pre-steady-state target cleavage rate” value read?
Answer: 0.735 ± 0.26

Question: CUUAAGGAGAGGAUCUACUGCGUUACGUAA was tested. Which “pre-steady-state target cleavage rate” value did it give?
Answer: 0.0136 ± 0.0065

Question: For CUUAACCUCUGGAUCUACUGGGUUACUUAA, which “pre-steady-state target cleavage rate” value is on record?
Answer: 0.45 ± 0.035

Question: For CAAUUCCUCUGGAUCUACUGGGUUACCAUA, which “pre-steady-state target cleavage rate” value is on record?
Answer: 0.518 ± 0.076

Question: Which “pre-steady-state target cleavage rate” value does the source give for GAAUUCCUCUGGAUCUUCUGGGUUACGUAA here?
Answer: 0.547 ± 0.042

Question: CAAUUGCUCUGGAACUACUGGGUUACCUAA was tested. Which “pre-steady-state target cleavage rate” value did it give?
Answer: 0.228 ± 0.029

Question: For CAUUUCGUCUGGAUCUACUGGGUUACCUAA, which “pre-steady-state target cleavage rate” value is on record?
Answer: 0.416 ± 0.058

Question: Which “pre-steady-state target cleavage rate” value does the source give for CUUAUCCUCUGGAUCUACUGGGUUAACUAA here?
Answer: 0.407 ± 0.071

Question: How did the “pre-steady-state target cleavage rate” value turn out when CUUAAGCUCAGGAUCUACUGGGAUACCUAA was run?
Answer: 0.137 ± 0.024

Question: With CAAUUCCUCUGGAUCUACUGGGUUAUCUAA as the sequence, how does the “pre-steady-state target cleavage rate” value read?
Answer: 0.634 ± 0.1

Question: Which “pre-steady-state target cleavage rate” value does the source give for CUUAAGGUCUGGUUCUUCUGGGUUACCUAA here?
Answer: 0.0644 ± 0.021

Question: With CUUUUCCUCUGCUACUACUGGGUUACCUAA as the sequence, how does the “pre-steady-state target cleavage rate” value read?
Answer: 0.305 ± 0.033

Question: Which “pre-steady-state target cleavage rate” value does the source give for CUUAAGCUCUGGAACUACUGGGUUACCUUA here?
Answer: 0.12 ± 0.017

Question: CUUAAGGAGACCAUCUACUGGGUUACAUAA was tested. Which “pre-steady-state target cleavage rate” value did it give?
Answer: 0.00756 ± 0.0026

Question: For CUUAACCUCUGGAUCUACUGGGUCUACCUAA, which “pre-steady-state target cleavage rate” value is on record?
Answer: 0.252 ± 0.027

Question: For CUAUUCCUCUGGAUCUACUGGGUUUCCAAA, which “pre-steady-state target cleavage rate” value is on record?
Answer: 0.149 ± 0.043

Question: CAAUUCCUCUGGAUCUUCUCGGUUACCUAA was tested. Which “pre-steady-state target cleavage rate” value did it give?
Answer: 0.0735 ± 0.014

Question: With CUUAACCCUCUGGAUCUACUGGGUUACCUAA as the sequence, how does the “pre-steady-state target cleavage rate” value read?
Answer: 0.256 ± 0.032

Question: How did the “pre-steady-state target cleavage rate” value turn out when CUUAAGGAGUGGUUCUACUGGGUUACCUUA was run?
Answer: 0.0165 ± 0.004

Question: How did the “pre-steady-state target cleavage rate” value turn out when CUUAAGCUCUGGAUCUUCUGGGUUACCUUA was run?
Answer: 0.0656 ± 0.014

Question: For CAUUUCCUCUGGAUCAACUGGGUUACCUAA, which “pre-steady-state target cleavage rate” value is on record?
Answer: 0.494 ± 0.056

Question: Which “pre-steady-state target cleavage rate” value does the source give for CAAUUCCUGUGGAUCUACUGCGUUACCUAA here?
Answer: 0.416 ± 0.059

Question: CUAUUCCUCUGCAUCUAGUGGGUUACCUAA was tested. Which “pre-steady-state target cleavage rate” value did it give?
Answer: 0.179 ± 0.019

Question: With CUUAAGCUCUGCAUCUACUGGGUUACGUAA as the sequence, how does the “pre-steady-state target cleavage rate” value read?
Answer: 0.226 ± 0.021

Question: How did the “pre-steady-state target cleavage rate” value turn out when CUUUUCCUCUGCAUCAACUGGGUUACCUAA was run?
Answer: 0.374 ± 0.03

Question: Which “pre-steady-state target cleavage rate” value does the source give for CUUUUCCUCUGGAUCUUCUGCGUUACCUAA here?
Answer: 0.253 ± 0.033

Question: Which “pre-steady-state target cleavage rate” value does the source give for CUUAUCCUCUGGAUCUACUGGGUCUACCUAA here?
Answer: 0.424 ± 0.037

Question: Which “pre-steady-state target cleavage rate” value does the source give for CUUUUCCUCUGGAUCCUACUGGGUUACCUAA here?
Answer: 0.149 ± 0.025

Question: For CUAUUCCUCUGGAUCUACUGGGUUACCUUA, which “pre-steady-state target cleavage rate” value is on record?
Answer: 0.333 ± 0.056

Question: “GAAUUCCUCUGGAUCUACUGGGUUACCUAU [g2:g30:cont:t1U]” was tested. Which “pre-steady-state target cleavage rate” value did it give?
Answer: 0.262 ± 0.042

Question: How did the “pre-steady-state target cleavage rate” value turn out when CUUAAGGUCACGAUCUACUGGGUUACCUAA was run?
Answer: 0.0165 ± 0.0034

Question: Which “pre-steady-state target cleavage rate” value does the source give for GUUAUCCUCUGGAUCUACUGGGUUACCUAA here?
Answer: 0.0688 ± 0.031

Question: Which “pre-steady-state target cleavage rate” value does the source give for CAAUUCCACUGGAUCUAGUGGGUUACCUAA here?
Answer: 0.193 ± 0.03

Question: With CUUAAGCUCUGCUACUACUGGGUUACCUAA as the sequence, how does the “pre-steady-state target cleavage rate” value read?
Answer: 0.0735 ± 0.013

Question: CUUAAGCUCUGGAUCUCCUGGGUUACCUAA was tested. Which “pre-steady-state target cleavage rate” value did it give?
Answer: 0.0368 ± 0.01

Question: GAAUUCCUCUCGAUGUACUGGGUUACCUAA was tested. Which “pre-steady-state target cleavage rate” value did it give?
Answer: 0.645 ± 0.052

Question: For CUUAAGGUCUGGAAGUACUGGGUUACCUAA, which “pre-steady-state target cleavage rate” value is on record?
Answer: 0.2 ± 0.042

Question: With CUUAAGGACUGGGAUCUACUGGGUUACCUAA as the sequence, how does the “pre-steady-state target cleavage rate” value read?
Answer: 0.0607 ± 0.035

Question: How did the “pre-steady-state target cleavage rate” value turn out when CUAUUCCUCUGGAUCUACUGCGUUACCAAA was run?
Answer: 0.344 ± 0.07

Question: With CUUAAGGACUGGAUCUACUGGGUUACCUAAA as the sequence, how does the “pre-steady-state target cleavage rate” value read?
Answer: 0.183 ± 0.065

Question: CUUUUCCUCUGCGAUCUACUGGGUUACCUAA was tested. Which “pre-steady-state target cleavage rate” value did it give?
Answer: 0.474 ± 0.049

Question: For CUUUUCCUCUGGAUCUGCUGGGUUACCUAA, which “pre-steady-state target cleavage rate” value is on record?
Answer: 0.451 ± 0.054

Question: How did the “pre-steady-state target cleavage rate” value turn out when GAAUUCCUCUGGAUCUACGUGGGUUACCUAA was run?
Answer: 0.00545 ± 0.0038

Question: With CUUUUCCUCUGGUAUCUACUGGGUUACCUAA as the sequence, how does the “pre-steady-state target cleavage rate” value read?
Answer: 0.372 ± 0.057

Question: How did the “pre-steady-state target cleavage rate” value turn out when CUUAAGCUCAGGAUCUACUGCGUUACCUAA was run?
Answer: 0.24 ± 0.033

Question: Which “pre-steady-state target cleavage rate” value does the source give for CUUUACCUCUGGAUCUACUGGGUAACCUAA here?
Answer: 0.115 ± 0.017

Question: For CAAUUCCAGUGGAUCUACUGGGUUACCUAA, which “pre-steady-state target cleavage rate” value is on record?
Answer: 0.495 ± 0.056

Question: For GACUUCCUCUGGAUCUACUGGGUUACCUAA, which “pre-steady-state target cleavage rate” value is on record?
Answer: 0.0458 ± 0.022

Question: With CUUUUCCUCUGGAUCUACUGGCUUACCUAA as the sequence, how does the “pre-steady-state target cleavage rate” value read?
Answer: 0.108 ± 0.015

Question: How did the “pre-steady-state target cleavage rate” value turn out when CUUAUCCUCUGGUUCUACUGGGUUAGCUAA was run?
Answer: 0.252 ± 0.049

Question: How did the “pre-steady-state target cleavage rate” value turn out when CUUAACCUCUGGAUGUACUGGGUUACCUAA was run?
Answer: 0.408 ± 0.03

Question: For GAAUACCUCUCGAUCUACUGGGUUACCUAA, which “pre-steady-state target cleavage rate” value is on record?
Answer: 0.536 ± 0.061

Question: For CUUAAGGAGAGGAUCUACUGGGUUUCCUAA, which “pre-steady-state target cleavage rate” value is on record?
Answer: 0.00336 ± 0.0033

Question: Which “pre-steady-state target cleavage rate” value does the source give for CUUAAGGUCUGGAUCUACUGGGUUACCAUAA here?
Answer: 0.278 ± 0.043

Question: CUUAAGCUCUGGAUCUACUGCGUUACCUAA was tested. Which “pre-steady-state target cleavage rate” value did it give?
Answer: 0.26 ± 0.035

Question: CAAUUCCUCUGGAUCUACUGCGUUACCUUA was tested. Which “pre-steady-state target cleavage rate” value did it give?
Answer: 0.402 ± 0.069

Question: CUUAUCCUCUGGAUCAACUGGGUUAGCUAA was tested. Which “pre-steady-state target cleavage rate” value did it give?
Answer: 0.18 ± 0.041

Question: How did the “pre-steady-state target cleavage rate” value turn out when CUUAAGGAGACCUAGUAGUGCGUUACCUAA was run?
Answer: 0.00262 ± 0.0018

Question: Which “pre-steady-state target cleavage rate” value does the source give for CUAUUCCUCUGGAUCCACUGGGUUACCUAA here?
Answer: 0.241 ± 0.04

Question: Which “pre-steady-state target cleavage rate” value does the source give for CAAUUCCUCUGCAUCUACUGGGUAACCUAA here?
Answer: 0.256 ± 0.031

Question: Which “pre-steady-state target cleavage rate” value does the source give for CUUAAGGACUGGAUCUACUGCGUUACCUAA here?
Answer: 0.132 ± 0.062

Question: For CUUAAGGAGUGGAGCUACUGGGUUACCUAA, which “pre-steady-state target cleavage rate” value is on record?
Answer: 0.0372 ± 0.019

Question: With CUUAACCUCAGGAUCUACUGGGUUUCCUAA as the sequence, how does the “pre-steady-state target cleavage rate” value read?
Answer: 0.249 ± 0.05

Question: Which “pre-steady-state target cleavage rate” value does the source give for GACAUUCCUCUGGAUCUACUGGGUUACCUAA here?
Answer: 0.108 ± 0.032
